Measurements reported in PubChem BioAssay AID493014 (National Center for Advancing Translational Sciences (NCATS), 2011).
About 170 (0.05%) of roughly 340,000 compounds were called active. Another 26% or so got no clear call; they are omitted. Calls follow the shape of the dose curve; as a rule, active = well fitted inhibition curve with a large enough effect in the signal ratio, with a control signal flat (not every such curve was filed as active); inconclusive = small, poorly fitted or top-dose-only effect, or effect the other way, or a change in a side signal; inactive = flat fitted curve, though single readings scatter; the % refers to the signal ratio. This is a selection; strong and weak results do not stand in their true shares.

Assay: qHTS Assay to Find Inhibitors of Chronic Active B-Cell Receptor Signaling;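 as to activity change, negative = inhibition: plate controls were basal doxycycline-induced cells for no effect and cells given 10 µM MG132 for full effect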
Conditions: ABC-DLBCL IkBa-CBG/CBR reporter, luminescence ratio (green luciferase fused to IkBa over red control in TMD8 lymphoma cells), 4 h; series mostly up to 46.1 µM; activity change, negative = inhibition: at the top concentration
In short: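 Doxycycline induced both beetle luciferases in TMD8 lymphoma cells; IKK-driven degradation limits the IkappaBalpha-fused green signal, while red luminescence normalises for cell number and nonspecific effects. Compounds tested up to 46 uM, 4 hrs.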
Potency is read from the fitted curve at half-maximal effect.

Compound | activity change, negative = inhibition | Potency
CC(=O)N1CCC[C@H]1C(=O)O | inactive: 5.68% | 
COc1ccc(C2CNC(=O)C2)cc1OC1CCCC1 (stereo not given) |  | inactive
C#Cc1ccc([C@@H]2C=C(C(=O)N3CCN(Cc4ccc5c(c4)OCO5)CC3)O[C@H](OCC)[C@H]2CCCO)cc1 | inactive: -1.64% | 
Cc1cc(C)c[n+](-c2nc3ccccc3nc2C(=C=[N-])C#N)c1 | inactive: 3.62% | 
COc1cc(/C=N/NC(=O)NC2CCCCC2)ccc1O |  | active: 12.6 µM
C/C(=N/NC(=O)COc1cc(C)ccc1C(C)C)C(=O)O |  | active: 10 µM
COc1cccc(CNC(=O)Cn2ccc3cc(S(=O)(=O)N4CCCC4)ccc32)c1 | inactive: 1.36% | 
COc1ccccc1N(CC(=O)NCCSCc1ccc(Cl)cc1)S(C)(=O)=O | inactive: 1.46% | 
CC[C@]12CCCN3CCc4c(n(c5ccccc45)[C@](O)(C(=O)OC)C1)[C@@H]32 | inactive: -13.5% | 
O=S1(=O)CC(O)C(Nc2ccc(Cl)cc2)C1 (stereo not given) | inactive: 6.58% | 
CCN1C(=O)/C(=C2\C=Cc3ccccc3N2CC)SC1=S | inactive: 10.7% | 
CN1CCN(CCCN2c3ccccc3Sc3ccc(Cl)cc32)CC1 | inactive: -10.1% | 
O=C(C[C@H]1C/C=C\CC[C@H](Cc2ccc(F)cc2)C(=O)OC[C@@H]2CCCN2C1=O)N[C@H](CO)Cc1ccccc1 | inactive: 1.81% | 
S=c1[nH]c2cc3ccccc3cc2[nH]1 | inactive: 0.119% | 
CC(C(=O)N1CCN(c2ccccc2)CC1)N1C(=O)C2CC=CCC2C1=O (stereo not given) | inactive: -8.89% | 
Cn1c(SCC(=O)N/N=C/C=C\c2ccco2)nc2ccccc21 | inactive: 0.545% | 
C=CC[C@H](CC(=O)NCCO)C(=O)N[C@H](COC(=O)[C@H](CC=C)CC(=O)OC(C)(C)C)Cc1c[nH]c2ccccc12 | inactive: -1.21% | 
O=C1N[C@@H](Cc2ccccc2)COC(=O)[C@@H](Cc2ccc(F)cc2)CC/C=C/C[C@@H]1CC(=O)N(CCO)Cc1ccccc1 | inactive: 2.14% | 
CCOC(=O)c1cnc(Nc2nc3ccccc3o2)nc1CSC(=S)N(CC)CC |  | active: 0.58 µM
C=CC[C@@H](CC(=O)NCCO)C(=O)NCCOC(=O)[C@@H](CC=C)Cc1ccc(F)cc1 | inactive: -1.26% | 
O=C(O)CCCn1cc(NC(=O)COc2ccccc2F)cn1 | inactive: 2.19% | 
CC[C@]1(c2ccccc2OC)C(=O)N(C(=O)OC)N1C(=O)OC | inactive: 5.24% | 
O=C(NCC(c1ccco1)N1CCc2ccccc21)C(=O)Nc1ccc(F)cc1F (stereo not given) |  | active: 9.2 µM

Compound | activity change, negative = inhibition | Potency
CCO[C@@H]1OC(C(=O)Nc2ccccc2)=C[C@H](c2ccc(Br)cc2)[C@H]1CCCO | inactive: 6.29% | 
NC(=O)C1CCN(c2nc(-c3ccccc3Br)cs2)CC1 | inactive: -6.73% | 
CCOC(=O)C1=C(C)c2ccccc2N(C(=O)OC)C1(C)C(=O)OCC (stereo not given) |  | active: 18.4 µM
COc1ccc(NC(=O)/C(=C/c2cccs2)NC(=O)c2ccco2)cc1 | inactive: 1.98% | 
CCC(CC)C(=O)c1c[nH]c(C(=O)NN)c1 |  | active: 22.4 µM
O=C(NC1CC1)C1=C[C@@H](C2CCCCC2)C[C@@H](OCCCCO)O1 | inactive: -6.16% | 
CCOC(=O)[C@@H](CCc1ccccc1)N[C@H](C)C(=O)N1[C@H](C(=O)O)C[C@@H]2CCC[C@@H]21 | inactive: 3.86% | 
O=C(NC1CC1)C1=C[C@H](c2csc3ccccc23)C[C@H](OCCCCO)O1 | inactive: -0.345% | 
C[C@H]1CN([C@@H](C)CO)C(=O)c2cccc(NC(=O)C3CC3)c2O[C@H]1CN(C)C(=O)Nc1ccc2c(c1)OCO2 | inactive: 1.77% | 
O=C1NC[C@H](c2ccccc2)OC(=O)[C@H](Cc2ccc(F)cc2)C/C=C\C[C@H]1CC(=O)N(CCO)Cc1ccccc1 | inactive: 4.74% | 
CC(C)(C)[C@H]1C=C(C(=O)N2CCN(Cc3ccccc3)CC2)O[C@@H](OCc2ccc(CO)cc2)C1 | inactive: 3.65% | 
CCCCN(C(=O)Nc1ccc(OCC)cc1)C1CCN(C(C)=O)CC1 | inactive: -8.72% | 
CCC(C)Sc1ccc([C@@H]2[C@@H]3C(=O)N(CC)C(=O)[C@@H]3[C@]3(C(=O)OC)CCCCN23)cc1 (stereo not given in full) | inactive: 1.46% | 
O=C1OC[C@H]2CCCN2C(=O)[C@@H](CC(=O)N(CCO)Cc2ccccc2)C/C=C\CC[C@H]1Cc1ccc(F)cc1 | inactive: -4.89% | 
CC(=O)C[C@@H](O)CC(=O)[C@H]1OC(=O)CCCCCc2ccccc21 | inactive: 4.44% | 
C[C@@]12C(=O)N(c3ccc(Cl)cc3)C(=O)N1[C@@H]1c3ccccc3OC[C@@H]1[C@H]2c1ccccc1 | inactive: -2.28% | 
C[C@@H]1COC(=O)[C@H](Cc2ccc(F)cc2)C/C=C\C[C@@H](CC(=O)NCCO)C(=O)N1 | inactive: 0.24% | 
O=C(C1=C[C@H](c2csc3ccccc23)C[C@H](OCCCCO)O1)N1CCN(Cc2ccc3c(c2)OCO3)CC1 | inactive: -2.56% | 
CC(C)(C)OC(=O)C[C@@H]1C/C=C\C[C@@H](CC(=O)N[C@H](CO)Cc2ccccc2)C(=O)N2CCC[C@H]2COC1=O | inactive: 1.41% | 
COc1ccc2c3c1OC1CC(O)C=CC31CCN(C)C2 (stereo not given) | inactive: -1.93% | 
CN1C(=S)SC(/[N+]([O-])=C\c2ccc(Cl)cc2)C1(C)C (stereo not given) | inactive: 0.399% | 
OCC[C@@H]1C[C@H](O)[C@@H](O)[C@]2(CCc3ccccc3CO2)O1 | inactive: -18.1% | 
